Results from patent publication US20220296736A1, “ADMINISTRATION OF THERAPEUTIC AGENTS TO BRAIN AND OTHER CELLS AND TISSUE” (priority 2019, published 2022).

Tested on: BBB in cerebral cortex

## OC[C@@H](O)[C@@H](O)[C@H](O)[C@H](O)CO [mannitol]
IA with coordinated closure of cCCA
  exposure required for effective cortical BBB disruption: around 3 minutes
T1-weighted scan after IA mannitol, four mice
  Gd-CE average signal change area (BBBO territory): 26.50±3.40%
